Data reported in patent publication US20250145722A1, “ANTI-GAL3 ANTIBODIES AND METHODS OF USE” (TrueBinding, Inc., priority 2020, published 2025).

B1: 847C.11B1: anti-Gal3 antibody (antibody)
heavy: EVQLQQSGPELVKPGASVKISCKASGNTFTDHNMHWVKQSHGKSLEWIGYIYPYNGGTGYNQKFKSKATLTVDNSSSTVYMELRSLTSEDSAVYYCARGEYDYLAWFAYWGQGTLVTVSAASTKGPSVFPLAPCSRSTSESTAALGCLVKDYFPEPVTVSWNSGALTSGVHTFPAVLQSSGLYSLSSVVTVPSSSLGTKTYTCNVDHKPSNTKVDKRV[letters of human IgG4 Fc with S228P (EU numbers) omitted]
light: EIVLTQSPASLSVTTGEKVTIRCITSIDIDDDMNWYQQKPGEPPKLLISEGNTLRPGVPSRFSSSGYGTDFVFTIENTLSEDVADYYCLQSDNKPLTFGAGTKLELKRTVAAPSVFIFPPSDEQLKSGTASVVCLLNNFYPREAKVQWKVDNALQSGNSQESVTEQDSKDSTYSLSSTLTLSKADYEKHKVYACEVTHQGLSSPVTKSFNRGEC
B2: 846T.14A2: anti-Gal3 antibody (antibody)
heavy: QIQLVQSGPELKKPGETVKISCKASGYTFTNYGMNWVKQAPGKGLKWMGWINTYTGEPTYAGDLKGRFAFSLETSASTAYLQINNLKNEDTATYFCVRYTMDYWGQGTSVTVSSASTKGPSVFPLAPCSRSTSESTAALGCLVKDYFPEPVTVSWNSGALTSGVHTFPAVLQSSGLYSLSSVVTVPSSSLGTKTYTCNVDHKPSNTKVDKRV[letters of human IgG4 Fc with S228P (EU numbers) omitted]
light: QAVVTQESALTTSPGETVTLTCRSSTGAVTTSNYANWVQEKPDHLFTGLIGGINNRVPGVPARFSGSLIGDKAALTITGAQTEDEAIYFCALWYSNHWVFGGGTKLTVLRTVAAPSVFIFPPSDEQLKSGTASVVCLLNNFYPREAKVQWKVDNALQSGNSQESVTEQDSKDSTYSLSSTLTLSKADYEKHKVYACEVTHQGLSSPVTKSFNRGEC
B3: 846.1H12: anti-Gal3 antibody (antibody)
heavy: QIQLVQSGPELKKPGETVKISCKASGYTFTNFGMNWVKQAPGKGLKWMGWINTYTGEPSYADDFKGRFAFSLETSASTAYLQINNLKNEDIATYFCARWGGYAGDYYAMDYWGQGTSVTVSSASTKGPSVFPLAPCSRSTSESTAALGCLVKDYFPEPVTVSWNSGALTSGVHTFPAVLQSSGLYSLSSVVTVPSSSLGTKTYTCNVDHKPSNTKVDKRV[letters of human IgG4 Fc with S228P (EU numbers) omitted]
light: NIMMTQSPSSLAVSAGQKVTMSCKSSQSVLYSSSQKNYLAWYQQKPGQSPKLLIYWASTRESGVPDRFSGSGSGTDFTLTISSVQPEDLAVYYCHQYLSSLTFGAGTKLELKRTVAAPSVFIFPPSDEQLKSGTASVVCLLNNFYPREAKVQWKVDNALQSGNSQESVTEQDSKDSTYSLSSTLTLSKADYEKHKVYACEVTHQGLSSPVTKSFNRGEC
B4: 849C.8D10: anti-Gal3 antibody (antibody)
heavy: QVQLQQTGAELVKPGASVKLSCKASGYTFTSYWINWVKQRPGQGLEWIGNIYPGSSSIYYSEKFKSKATLTVDTSSSTAYMQLSSLTSDDSAVYYCARWGYWGQGTTLTVSSASTKGPSVFPLAPCSRSTSESTAALGCLVKDYFPEPVTVSWNSGALTSGVHTFPAVLQSSGLYSLSSVVTVPSSSLGTKTYTCNVDHKPSNTKVDKRV[letters of human IgG4 Fc with S228P (EU numbers) omitted]
light: DVLMTQTPLSLPVSLGDQASISCRSSQDIVHSSGNTYLEWYLQKPGQSLKLLIYKVSNRFSGVPDRFSASGSGTDFTLKISRVEAEDLGVYYCFQGSHVPPTFGSGTKLEIKRTVAAPSVFIFPPSDEQLKSGTASVVCLLNNFYPREAKVQWKVDNALQSGNSQESVTEQDSKDSTYSLSSTLTLSKADYEKHKVYACEVTHQGLSSPVTKSFNRGEC
B5: 846TC.14E4: anti-Gal3 antibody (antibody)
heavy: QVTLKESGPGILQPSQTLSLTCSFSGFSLSTSGMGVGWIRQPSGKGLEWLAHIWWDDDKYYNTALKSGLTISKDASKNQVFLKIASMDTADTATYYCARNLYDGSYGYYAMDYWGQGTSVTVSSASTKGPSVFPLAPCSRSTSESTAALGCLVKDYFPEPVTVSWNSGALTSGVHTFPAVLQSSGLYSLSSVVTVPSSSLGTKTYTCNVDHKPSNTKVDKRV[letters of human IgG4 Fc with S228P (EU numbers) omitted]
light: DIVMTQAAFSNPVTLGTSASISCRSSKSLLHTNGITFLYWYLQKPGQSPQPLIYQMSNLASGVPDRFSSSGSGTDFTLRISRVEAEDVGVYYCAQNLELPWTFGGGTKLEINRTVAAPSVFIFPPSDEQLKSGTASVVCLLNNFYPREAKVQWKVDNALQSGNSQESVTEQDSKDSTYSLSSTLTLSKADYEKHKVYACEVTHQGLSSPVTKSFNRGEC

Experiments:
[1] = target: Gal3-APP695 (APP isoform 695) (Homo sapiens, UniProt P17931); experiment: Gal3-APP695 blocking; assay type: binding; details: as restated
Chain of Gal3-APP695 (APP isoform 695) (P17931 2-250 limits assumed): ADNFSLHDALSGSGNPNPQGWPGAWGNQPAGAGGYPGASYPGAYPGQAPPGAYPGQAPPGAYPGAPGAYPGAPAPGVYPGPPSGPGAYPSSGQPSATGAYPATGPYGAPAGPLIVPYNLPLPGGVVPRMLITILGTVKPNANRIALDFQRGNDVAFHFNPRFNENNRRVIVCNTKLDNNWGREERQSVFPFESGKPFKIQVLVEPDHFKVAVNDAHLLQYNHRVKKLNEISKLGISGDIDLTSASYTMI

[2] = target: T1, Gal3-induced Aβ42 oligomers (Homo sapiens, UniProt P17931); experiment: Disruption of Gal3-induced Aβ42 oligomers (dot blot, A11/6E10); assay type: biochemical; details: hGal3-65-250 isoform-induced Aβ-42 oligomers; within 1 hour; FIG. 63D
T1 construct: The anti-Gal3 antibodies were incubated with hGal3-65-250 isoform-induced Aβ-42 oligomers; made in house
T1 sequence (P17931 65-250): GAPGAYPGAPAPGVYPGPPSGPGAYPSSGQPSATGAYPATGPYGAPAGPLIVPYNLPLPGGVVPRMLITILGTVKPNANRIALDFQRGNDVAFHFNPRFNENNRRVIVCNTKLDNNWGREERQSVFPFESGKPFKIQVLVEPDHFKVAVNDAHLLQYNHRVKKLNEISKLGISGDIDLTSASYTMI

[3] = Brain penetration of biotinylated anti-GAL3 antibodies in GL261-LUC glioma mice (ELISA of plasma and brain lysates); assay type: in vivo, Albino C57BL6 mice; details: biotinylated antibody 10 mg/kg i.v.; four days later; FIG. 34A-C
From the text: To validate ability of anti-GAL3 antibodies to penetrate tumor tissue, 7-week old Albino C57BL6 mice (The Jackson laboratory) were orthotopically transplanted with murine glioma cells GL261 that stably express firefly luciferase gene (GL261-LUC).
To generate GL261-LUC cells, GL261 murine glioblastoma cell line (DSMZ, no. ACC 802) was transduced with pLL-CMV-Luciferase-T2A-Puro Lenti-Labeler™ Pre-packaged Virus (SBI, catalog No. LL150VA-1) employing transduction reagent (TransDux MAX Transduction reagent, SBI, catalog No. LV860A-1) according to the manufacturer's instructions. […]
To generate biotinylated anti-GAL3 antibodies, biotinylation was performed with (EZ-Link™ NHS-PEG4-Biotin, No-Weigh™ Format, ThermoFisher Scientific, A39259) using the manufacturer's protocol. […] The final concentrations of biotinylated samples were calculated based on their UV absorption at 280 nm.
GL261-LUC (5×10^5) were transplanted into the forebrain of the recipient animals (1 mm posterior of bregma, 2 mm lateral of midline and 3.5 mm deep, employing a stereotaxic frame (Stoelting, 51725D)). Implantation was confirmed using imaging of tumor luminescence. […] When bioluminescence flux detected in brains of injected animals reached 106 photons/second, the animals were injected i.v. with biotinylated anti-GAL3 antibodies (10 mg/kg). […]

Molecule | inhibition of Aβ-42 oligomer formation [2] | other results
B1 | – | blocking of Gal3-APP695 [1]: 87%
B2 | significant inhibition | –
B3 | – | activity in penetrating the blood brain barrier (BBB) [3]: higher penetrance than the rest of the tested clones
B4 | significant inhibition | –
B5 | significant inhibition | –
